These are yes or no findings as the source states them, for the method shown. For part of these data: In cells and extracts the contact can be indirect. Some binding calls cover weakened binding; strength is not graded here. For part of these data: Sequences can lack the tags named with a protein. Values belong to the substance of their own block, whether it stands above or below them.
Assays:
[1] = biological target: T1, NSUN2 K692R (non-lactylatable), CRISPR/Cas9 knock-in at the endogenous locus of PANC-1 cells (human (endogenous in PANC-1)) (UniProt Q08J23); assay: co-IP; PANC-1 lysates in IP lysis buffer, antibody (NSUN2 antibody in Figure 3M) overnight at 4 °C, protein A/G magnetic beads, Western blot; cells with siNC, LDHA and/or LDHB siRNA, ddH2O or L-lactate; wild-type or NSUN2-K692 knock-in cells
T1 sequence: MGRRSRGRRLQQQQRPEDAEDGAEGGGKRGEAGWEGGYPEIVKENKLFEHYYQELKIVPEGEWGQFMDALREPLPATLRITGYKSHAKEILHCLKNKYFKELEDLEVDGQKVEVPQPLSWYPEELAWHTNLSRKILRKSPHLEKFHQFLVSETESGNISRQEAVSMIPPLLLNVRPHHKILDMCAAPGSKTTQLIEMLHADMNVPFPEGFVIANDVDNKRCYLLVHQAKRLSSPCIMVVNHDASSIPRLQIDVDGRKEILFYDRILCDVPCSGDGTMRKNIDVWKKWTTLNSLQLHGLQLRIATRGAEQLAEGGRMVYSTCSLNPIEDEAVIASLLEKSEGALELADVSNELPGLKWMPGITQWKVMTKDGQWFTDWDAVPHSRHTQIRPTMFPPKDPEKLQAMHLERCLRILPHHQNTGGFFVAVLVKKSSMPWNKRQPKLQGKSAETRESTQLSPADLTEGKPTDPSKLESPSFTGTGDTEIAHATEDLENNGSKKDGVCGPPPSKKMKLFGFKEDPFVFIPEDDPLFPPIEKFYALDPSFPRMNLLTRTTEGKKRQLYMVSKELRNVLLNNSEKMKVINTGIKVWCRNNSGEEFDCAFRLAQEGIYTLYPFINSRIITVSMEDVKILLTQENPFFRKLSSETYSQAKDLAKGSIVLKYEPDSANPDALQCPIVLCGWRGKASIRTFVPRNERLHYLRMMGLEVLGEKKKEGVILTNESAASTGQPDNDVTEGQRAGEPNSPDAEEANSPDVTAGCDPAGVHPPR

The chains behind the UniProt entries cited, without tags or fusion partners.
UniProt Q9UNE7: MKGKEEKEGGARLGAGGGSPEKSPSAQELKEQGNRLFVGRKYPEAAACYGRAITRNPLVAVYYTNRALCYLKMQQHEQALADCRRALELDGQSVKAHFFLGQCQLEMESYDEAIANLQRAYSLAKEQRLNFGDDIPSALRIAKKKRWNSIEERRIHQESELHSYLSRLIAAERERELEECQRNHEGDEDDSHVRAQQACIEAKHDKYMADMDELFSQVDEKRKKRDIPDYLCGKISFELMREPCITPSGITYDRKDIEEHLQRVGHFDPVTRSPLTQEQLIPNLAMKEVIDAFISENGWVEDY

[2] = biological target: NSUN2 (NOP2/Sun RNA methyltransferase family member 2), wild type, in PANC-1 cells (human (endogenous in PANC-1)) (UniProt Q08J23); assay: as above
[3] = biological target: T2, GST-NSUN2 (251-500) (human) (UniProt Q08J23); assay: pull-down; in vitro translated STUB1 incubated with GST or GST-NSUN2 fragments; glutathione eluates and 15% input analysed by SDS-PAGE and immunoblot with anti-STUB1; only the target purified
T2 sequence: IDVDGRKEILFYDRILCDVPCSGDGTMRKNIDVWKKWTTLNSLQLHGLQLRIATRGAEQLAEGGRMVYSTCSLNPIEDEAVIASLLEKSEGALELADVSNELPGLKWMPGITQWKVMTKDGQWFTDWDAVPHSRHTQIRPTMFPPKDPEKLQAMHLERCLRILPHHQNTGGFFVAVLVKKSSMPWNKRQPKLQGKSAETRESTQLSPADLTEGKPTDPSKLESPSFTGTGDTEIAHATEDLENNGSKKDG

[4] = biological target: T3, GST-NSUN2 (1-250) (human) (UniProt Q08J23); assay: as above
T3 sequence: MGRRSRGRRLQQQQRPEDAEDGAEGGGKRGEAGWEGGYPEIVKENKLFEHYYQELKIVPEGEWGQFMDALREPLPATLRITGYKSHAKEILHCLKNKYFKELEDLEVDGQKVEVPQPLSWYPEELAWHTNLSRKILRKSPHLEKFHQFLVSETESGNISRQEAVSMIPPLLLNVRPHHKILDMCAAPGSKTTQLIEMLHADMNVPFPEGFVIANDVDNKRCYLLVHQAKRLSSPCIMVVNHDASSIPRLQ

[5] = biological target: T4, GST-NSUN2 (501-767) (human) (UniProt Q08J23); assay: as above
T4 sequence: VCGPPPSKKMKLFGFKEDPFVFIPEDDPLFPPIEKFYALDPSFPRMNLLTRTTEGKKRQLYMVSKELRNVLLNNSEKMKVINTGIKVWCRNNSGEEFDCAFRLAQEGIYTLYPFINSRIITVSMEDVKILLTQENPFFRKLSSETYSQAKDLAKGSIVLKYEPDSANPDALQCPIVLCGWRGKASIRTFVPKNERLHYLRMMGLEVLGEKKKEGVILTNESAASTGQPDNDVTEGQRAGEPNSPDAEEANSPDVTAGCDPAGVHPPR

[6] = biological target: NSUN2, purified protein of the GST pull-down (Figure 3N) (human) (UniProt Q08J23); assay: pull-down; GST pull-down with purified proteins; which protein carried GST is not stated; both purified

- binding [1]: binds
- binding [2]: binds
Substance: STUB1 (STIP1 homology and U-box containing protein 1), in PANC-1 cells (from UniProt Q9UNE7 1-303)

- binding [3]: no binding
- binding [4]: no binding
- binding [5]: binds
Substance: STUB1, in vitro translated (from UniProt Q9UNE7 1-303)

- binding [6]: binds
Substance: STUB1, purified protein of the GST pull-down (Figure 3N) (from UniProt Q9UNE7 1-303)

From paper PMC12680535
